From PMC4336329 (PLoS ONE, 2015)
Hit rate of the full screen: of about 310,000 compounds, about 14,000 (4.5%) showed an effect of 50% or more. The effect is printed as a negative number. Some of the results follow.

target: human ether-à-go-go-related gene (hERG) potassium channel (human, UniProt Q12809); experiment: primary screen, population patch clamp on CHO cells stably expressing hERG
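Note: peak tail current of the secondary pulse compared with the same well before compound.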

human ether-à-go-go-related gene (hERG) potassium channel, sequence (Q12809 whole entry, looked up): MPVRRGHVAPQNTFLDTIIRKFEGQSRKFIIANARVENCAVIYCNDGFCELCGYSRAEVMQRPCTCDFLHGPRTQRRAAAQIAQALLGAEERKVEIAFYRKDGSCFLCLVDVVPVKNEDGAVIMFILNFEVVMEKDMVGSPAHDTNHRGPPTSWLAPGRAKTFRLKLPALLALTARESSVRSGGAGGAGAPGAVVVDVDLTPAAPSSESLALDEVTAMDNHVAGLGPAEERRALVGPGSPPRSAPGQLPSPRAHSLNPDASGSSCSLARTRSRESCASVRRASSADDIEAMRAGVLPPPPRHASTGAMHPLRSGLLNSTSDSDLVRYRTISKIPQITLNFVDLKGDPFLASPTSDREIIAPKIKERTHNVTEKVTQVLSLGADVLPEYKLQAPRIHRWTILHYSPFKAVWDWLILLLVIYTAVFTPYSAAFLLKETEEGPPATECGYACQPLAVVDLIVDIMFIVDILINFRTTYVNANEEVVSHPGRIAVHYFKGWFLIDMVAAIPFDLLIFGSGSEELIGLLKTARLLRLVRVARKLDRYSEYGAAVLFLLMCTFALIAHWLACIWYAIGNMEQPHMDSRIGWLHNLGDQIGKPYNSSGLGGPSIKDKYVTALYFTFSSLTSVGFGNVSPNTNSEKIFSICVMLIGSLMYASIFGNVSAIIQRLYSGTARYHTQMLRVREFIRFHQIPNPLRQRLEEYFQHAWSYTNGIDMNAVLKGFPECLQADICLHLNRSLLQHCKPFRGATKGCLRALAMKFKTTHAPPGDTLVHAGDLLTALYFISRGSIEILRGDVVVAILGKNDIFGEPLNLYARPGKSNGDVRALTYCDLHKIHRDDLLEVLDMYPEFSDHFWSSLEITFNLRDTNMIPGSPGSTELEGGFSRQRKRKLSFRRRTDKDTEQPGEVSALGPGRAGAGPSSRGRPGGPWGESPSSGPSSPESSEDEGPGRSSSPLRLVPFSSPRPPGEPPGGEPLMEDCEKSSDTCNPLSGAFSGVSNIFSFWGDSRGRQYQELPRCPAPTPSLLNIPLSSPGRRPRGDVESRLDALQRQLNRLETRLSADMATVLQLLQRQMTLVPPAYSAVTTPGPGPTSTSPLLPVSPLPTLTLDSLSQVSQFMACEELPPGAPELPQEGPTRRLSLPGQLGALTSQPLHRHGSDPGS

Row | SMILES | hERG current change (%, negative = inhibition) at 10uM [%]
1 | O=C1CCCCC1C(Nc1ccc(Cl)cc1)c1ccccc1 (centres unmarked) | 5.67
2 | O=C(CSCc1ccc(Cl)cc1)Nc1ccc2c(c1)OCCO2 | -20.3
3 | CCN1CCN(CCc2nc3cc(NC(=O)COc4ccccc4)ccc3n2C)CC1 | -49.8
4 | O=C(O)CSCc1nc2ccccc2[nH]1 | 19.3
5 | COC(=O)c1ccccc1S(=O)(=O)N1CCC(C(=O)OC(C)C(=O)Nc2ccccc2OC)CC1 (centres unmarked) | -51.3
6 | O=C(Nc1ncc(S(=O)(=O)c2ccc([N+](=O)[O-])cc2)s1)c1cccnc1 | -2.29
7 | COc1ccc2c(c1)c(=O)c(C(=O)c1ccccc1)cn2Cc1ccccc1 | -71.8
8 | CCN(c1ccc(OC)cc1)S(=O)(=O)c1nnc(NC(=O)C2CCCCC2)s1 | 12.2
9 | COc1nc(-c2ccc(Cl)cc2)ccc1-c1noc(-c2ccco2)n1 | 16.8
10 | COc1cccc(NS(=O)(=O)c2cc3c(cc2C)N(C(C)=O)CCO3)c1 | 5.83
11 | Clc1cc2c(c(CSc3nc4ccccc4n4cccc34)c1)OCOC2 | 19.4
12 | NS(=O)(=O)c1ccc(CCNC(=S)Nc2ccc(F)cc2)cc1 | 6.41
13 | CN(C)CCn1c(NCc2ccc3c(c2)OCO3)nc2ccccc21.Cl | -59.5
14 | CCNCCNC(=O)c1c(O)c2c([nH]c1=O)CCCC2 | 8.43
15 | Cc1ccccc1NC(=O)Cc1nc(COC(=O)c2ccc(O)cc2O)cs1 | -5.83
16 | Cc1cc2cc(CCNS(=O)(=O)c3ccc(F)cc3)c(=O)[nH]c2cc1C | 5.91
17 | CC(C)S(=O)(=O)c1cnc(-c2cccnc2)nc1N | 12.6
18 | C/C(=N\NC(=O)NC1CCCCC1)C1CCCCC1 | 4.01
19 | COC(=O)CSc1nnc(NC(=O)C2CC(=O)N(c3ccc(F)cc3)C2)s1 (centres unmarked) | 11.8
20 | CCOc1ccc(-c2nnn(CC(=O)NCc3cccs3)n2)cc1 | 1.14
21 | CC(C)(C)c1ccc(C(=O)OCC(=O)N2CCC(c3ccccc3)=N2)cc1 | -5.9
22 | O=C(c1ccccc1)c1n[nH]c(-c2ccccc2)cc1=O | 30.9

Row | SMILES | hERG current change (%, negative = inhibition) at 10uM [%]
23 | CC(C)(C)C(=O)Nc1nc2c(s1)COc1ccccc1-2 | -30.9
24 | COc1ccc(C(=O)NCC(=O)NC2=NCCS2)cc1 | 9.41
25 | CCOC(=O)C1CCCN(S(=O)(=O)c2ccc(Cl)nc2)C1 (centres unmarked) | -10
26 | COc1ccc(/C=N/NC2=NCCCCC2)cc1 | -43.7
27 | O=C(Cn1cnc2c(nnn2Cc2ccccc2)c1=O)N1CCCc2ccccc21 | 3.38
28 | Cl.Nc1scc(-c2ccncc2)c1Cl | -7.37
29 | COc1ccccc1CCNC(=O)C(=O)NCC1OCCN1S(=O)(=O)c1cccs1 (centres unmarked) | -1.48
30 | CC(C)(C)NC(=O)C(c1ccncc1)N(CC1CCCO1)C(=O)Cn1nnc(-c2ccc(F)cc2)n1 (centres unmarked) | -3.33
31 | CCSc1ncc(/C=N/Nc2ccc(Cl)cc2)n1C | -10.2
32 | O=C(CN(C(=O)c1csnn1)c1cccc2ccccc12)NCc1ccccc1 | 0.271
33 | O=C(OCc1nc2scc(-c3ccccc3)c2c(=O)[nH]1)c1ccco1 | -21.7
34 | COc1ccc(NC(=O)CN(C)C(=O)CN2C(=O)NC3(CCCC3)C2=O)cc1 | -0.152
35 | CCCCCCOc1ccc(N2C(=O)CC(NCCc3ccc(S(N)(=O)=O)cc3)C2=O)cc1 (centres unmarked) | 14.1
36 | CCNS(=O)(=O)c1ccc(NC(=O)Nc2ccccc2OC)cc1 | 1.05
37 | COc1ccc(/C=N/Nc2nc(-c3cccnc3)nc3ccccc23)c(OC)c1 | 7.71
38 | O=C(Cn1cnc([N+](=O)[O-])n1)NCCc1ccccc1 | 12.9
39 | C=C1CC2C(CCC3(C)C2CCC3(O)C(C)=O)C2(C)CCC(=O)C=C12 (centres unmarked) | 23.3
40 | C=C1CC[C@@]2(O)[C@H]3Cc4ccc(O)c5c4[C@@]2(CCN3CC2CC2)[C@H]1O5 | -2.73
41 | CN(CC(O)COc1ccc(S(=O)(=O)N2CCOCC2)cc1)C1CCCCC1 (centres unmarked) | -6.74
42 | COCCNS(=O)(=O)c1cc(C(=O)O)ccc1OC | 15.9
43 | CCOC(=O)c1[nH]cnc1C(=O)Nc1ccccc1OC | -2.79
44 | Cc1cccc2c(-c3ccccc3)cc(=O)[nH]c12 | -10.1
